Test results from PubChem BioAssay AID759 (NMMLSC, 2007).
The whole screen tested about 190,000 compounds, of which about 270 (0.14%) were called active. The shares of active, inactive and inconclusive entries below differ from those in the screen.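 Rule for the calls: active = GTP binding activity at least 20% away from the 100% baseline, either lowered as inhibitor or raised as activator; inconclusive = flagged as likely green fluorescent, judged across all proteins in the well; inactive = the rest.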

These molecules were tested against GTPase HRas (Homo sapiens) (UniProt P01112) (assay: HRas wt fluorescent GTP binding changes, either direction – biochemical, wildtype, bead-based flow cytometry, multiplex, primary screen (AID 759;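 note: 0% = unlabeled GTP competition control and 100% = no-compound control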)). Details: GST-Ras wt beads, Bodipy-FL-GTP binding, at 10 µM, actives lie on both sides.
Sequence of UniProt P01112 (P01112 whole entry, looked up): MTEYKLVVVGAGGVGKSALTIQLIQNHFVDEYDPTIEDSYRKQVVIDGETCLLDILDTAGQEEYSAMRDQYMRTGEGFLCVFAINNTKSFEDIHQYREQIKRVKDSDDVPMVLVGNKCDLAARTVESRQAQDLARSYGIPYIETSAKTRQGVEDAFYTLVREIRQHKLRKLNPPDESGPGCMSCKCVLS

GTP binding activity, inconclusive:
O=C(COC(=O)c1ccccc1C(=O)N1CCN(c2ccccc2)CC1)NCc1ccccc1 94%, Cn1c(SCCOc2cccc(Cl)c2)nnc1-c1ccncc1 105%, Cc1cc(C)n(Cc2n[nH]c(=S)n2Cc2ccccc2)n1 305%, NC(N)=Nc1nc2ccc(Cl)cc2c(=O)[nH]1 89%, Cc1ccc(-c2nnc3sc(C4COc5ccccc5O4)nn23)cc1 (configuration not stated) 94%, Cc1c(NC(=O)Nc2ccccc2Cl)sc(=S)n1C 102%, O=C1CCCc2nc(N3CCc4ccccc43)ncc21 91%, O=[N+]([O-])c1ccc(Cl)c(/C=N/n2c(-c3cccnc3)n[nH]c2=S)c1 86%, Cc1cccc2sc(N(CCN(C)C)C(=O)/C=C/c3cccs3)nc12 103%, c1ccc(-c2cc3c(N4CCCCC4)ncnc3s2)cc1 92%, CCOc1cc(C(=O)NC(C)CC)cc(OCC)c1OCC (configuration not stated) 106%, O=C(CSc1cccc[n+]1[O-])Nc1cc([N+](=O)[O-])ccc1Cl 94%, FC(F)(F)c1cccc(-c2nnc3ccc(C(F)(F)F)cn23)c1 104%, O=C(c1cccs1)N1CCCC(c2ccccc2)C1 (configuration not stated) 96%, Cc1ccc(C(=O)Nc2cccc([N+](=O)[O-])c2)cc1S(=O)(=O)Nc1cccc(C(=O)O)c1 89%, O=c1c2cnn(-c3ccccc3)c2ncn1Cc1cccnc1 102%, Cc1nnc2ccc(-c3cccc(NS(C)(=O)=O)c3)nn12 94%, CCn1c(SCC(=O)Nc2nc3ccc(OC)cc3s2)nc2c1c(=O)n(C)c(=O)n2C 93%, Cc1cccc(-n2cccc2)c1C#N 100%, Cc1ccc(S(=O)(=O)NCCCCCC(=O)NC(C)(C)CO)cc1 101%, OCCNC1=NCCN1 103%, COC(=O)c1ccccc1NC(=S)NC(NC(=O)c1ccccc1[N+](=O)[O-])C(Cl)(Cl)Cl (configuration not stated) 107%, Cc1ccc(C)c(C(=O)OCC(=O)Nc2ccc(N3CCOCC3)cc2)c1 97%, CCOc1ccc(NC(=S)N=Nc2c(O)[nH]c3ccccc23)cc1 73%, Cc1ccc(NC(=O)NC2(C(=O)NCc3ccccc3)CCCCC2)cc1 97%, O=C(NN1C(=O)c2ccccc2NC1c1ccccc1OCc1ccccc1)c1ccncc1 (configuration not stated) 103%, O=C(Nc1ccccc1Cl)N1CCN(c2ccc3nnc(-c4ccccc4)n3n2)CC1 85%, CSc1nc(N)c(C#N)c(-c2ccccc2Cl)c1C#N 102%, COC(=O)CSc1nnc(-c2ccco2)o1 105%, CCC(C)(C)NC(=O)C1CCN(S(=O)(=O)c2cccs2)CC1 183%, NC(=O)N1CCN(C(=O)c2ccco2)CC1 103%, CCC(C)N1C(=O)S/C(=C/c2ccc(N3CCOCC3)cc2C)C1=O (configuration not stated) 103%, COc1ccc(NS(=O)(=O)c2csc(C(=O)Nc3ccccc3)c2)cc1 96%, CC(=O)N=c1sc2nc3ccccc3nc2n1N(C(C)=O)C(C)=O 86%, CC(C)OC(=O)CCCCCN1C(=O)CSC1=S 102%, Cc1ccc(NC(=O)N/C=C/c2ccccc2)cc1 96%, O=c1c2c(nc3c(-c4ccc(Cl)cc4)c[nH]n13)CCC2 84%, O=c1oc2c(O)c(O)cc3c(=O)oc4c(O)c(O)cc1c4c23 83%, Cc1cc(Br)ccc1NC(=O)CN1C(=S)NC(C)(C)CC1C (configuration not stated) 91%, CNC(=S)Nc1cc(C)ccc1OC(F)F 98%, COc1ccc(CNC(=O)c2c(O)c3ccccc3n(C)c2=O)cc1OC 96%, N#Cc1cc2c(nc1SCc1nc3ccccc3[nH]1)CCC2 94%, CNS(=O)(=O)c1cccc2cccnc12 103%, O=C(c1cc2sccc2n1Cc1ccccc1)N1CCc2ccccc21 103%, CC(C)CC1CCCCC1OC(=O)C[N+]1(C)CCCCC1 (configuration not stated) 97%, CC(=O)N1CCc2cc(Br)cc(S(=O)(=O)NCCCN3CCCC(C)C3)c21 (configuration not stated) 92%, NC(=O)/C(=N\O)c1ccccc1 101%, CCN(CCCNC(=O)CCn1c(=O)[nH]c2ccccc2c1=O)c1cccc(C)c1 107%, COc1ccccc1C1C(C(N)=O)=C(C)Nc2nc(-c3ccccc3Cl)nn21 (configuration not stated) 104%, N#CCc1nc2n(n1)Cc1ccccc1-2 100%, COCc1nc2ccccc2n1Cc1cccc(C)c1 94%, CCn1c(SCc2ccc(C#N)cc2)nnc1-c1cccc(Cl)c1 90%, Cc1cccc(NC(=O)Nc2ccc(Oc3c(F)c(F)c(F)c(F)c3F)cc2)c1 104%, CCN(CC)S(=O)(=O)c1cccc(C(=O)N/N=C(\C)c2ccc(O)cc2O)c1 91%, CC(C)C(=O)Nc1ccc(C(=O)N/N=C/C2CC3C=CC2C3)cc1 (configuration not stated) 103%, COc1cccc(-c2nn3c(-c4ccccn4)nnc3s2)c1 90%, CCOc1ccccc1-n1c(C)nc2cc(C(=O)O)ccc21 97%, Cc1nnc(SCc2cccc(Cl)c2)n(N)c1=O 95%, Cc1sc2nc(SCC(=O)NCc3ccco3)n(CCc3ccccc3)c(=O)c2c1C 103%

GTP binding activity, active:
Cc1ccc(Nc2n[nH]c(C)c2[N+](=O)[O-])c(C)c1 154% [activator], O=C(NC1CCCCC1)C(c1ccco1)N(Cc1ccco1)C(=O)c1ccco1 (configuration not stated) 64%, COc1cc2[nH]c(=S)nc(NCCc3ccc(C)cc3)c2cc1OC 54%, CCOC(=O)N1CCN(C(=O)CCc2ccc(S(=O)(=O)NCCc3ccccc3)cc2)CC1 37%

GTP binding activity, inactive:
Cc1ccnc(NC(=O)Cn2cc([N+](=O)[O-])cn2)c1 98%, Clc1cccc2c1CCN(Cc1nc(-c3cnccn3)no1)C2 100%, O=C(ONC1=NCCCCC1)c1ccc([N+](=O)[O-])cc1 100%, CCN1C(=O)CC2(C[N+]3(C)CCC2CC3)C1=O (configuration not stated) 103%, Cc1cccc(OCC(=O)N/N=C/c2ccc3c(c2)OCO3)c1 85%, CC(NC(=S)Nc1ccc([N+](=O)[O-])cc1)c1ccncc1 (configuration not stated) 99%, Cc1ccsc1/C=N/NC(=O)CNC(=O)c1ccc(S(=O)(=O)N2CCOCC2)cc1 100%, Cc1ccc(-c2nc3ccccc3[nH]2)cc1NC(=O)/C=C/c1ccco1 102%, CC(C)CCNCC1OCc2ccccc2CO1 102%, Cc1nc(CN2CCN(C(=O)CCc3nnc(Cc4c[nH]c5ccccc45)o3)CC2)cs1 95%, C=C(C)CNC(=S)N/N=C/c1ccccc1OCC(=O)O 95%, O=C(Nc1c2c(nn1-c1ccc(F)cc1)CS(=O)C2)c1ccc(S(=O)(=O)N2CCOCC2)cc1 (configuration not stated) 98%, CC(=O)CSc1ncnc2c1cnn2-c1ccccc1 98%, CCNC(=O)Nc1ccc(-n2nc(C)c(C(=O)OCC)c2C)nc1 98%, CC(C)c1ccccc1NC(=O)COC(=O)c1ccc(Cl)c(S(=O)(=O)N2CCCCCC2)c1 102%, Cc1ccnc(NC(c2ccccc2O)c2oc(CO)cc(=O)c2O)c1 (configuration not stated) 97%, COc1ccc(C(=O)NC(=S)N2CC(C)OC(C)C2)cc1 (configuration not stated) 91%, c1ccc2oc(-c3csc(N4CCOCC4)n3)cc2c1 95%, CCOc1cc(/C=N/NC(=O)C(C)Sc2ccccc2)ccc1O (configuration not stated) 89%, CCOC(=O)c1c(NC(=O)/C=C/c2ccc3c(c2)OCO3)sc(C)c1C 104%, O=C(/C(C=Nc1ccc(F)cc1)=C(/O)c1ccco1)C(F)(F)F 99%, Cc1csc(SCC(=O)c2ccc(S(=O)(=O)N3CCOCC3)cc2)n1 100%, O=C(NCC1CCCO1)c1cccc(S(=O)(=O)NCc2ccccc2)c1 (configuration not stated) 102%, COc1c(C)cccc1C(=O)NC(=S)Nc1ccc2c(c1)Cc1ccccc1-2 83%, CCOC(=O)c1ccc(Nc2cc(C)nc3nc(C)nn23)cc1 98%, Cc1c(F)cccc1NS(=O)(=O)c1ccc2c(c1)c(=O)n(C)c(=O)n2C 100%, CCc1ccc(Cc2cnc(NC(=O)C3=NCCN3)s2)cc1 95%, CC(C)Cn1c(N)c(C=O)c(=O)[nH]c1=O 96%, O=C(NCC1CCCO1)c1ccc2c(=O)n(CC3CCCO3)c(SCC(=O)N3CCCC3)nc2c1 (configuration not stated) 97%, COc1cccc(NC(=O)c2cc(OC)c(OC)c(OC)c2Br)c1 102%, O=C(COC(=O)c1cc2ccccc2o1)c1ccccc1 99%, CC1CC1c1ccc(/C=C(\C#N)C(=O)Nc2cccc(Cl)c2Cl)o1 (configuration not stated) 99%, CSCCCNC(=S)N1CCc2ccccc2C1 97%, CCOC(=O)C1=C(C)OC(N)=C(C#N)C1c1cc2c(cc1[N+](=O)[O-])OCO2 (configuration not stated) 96%
